# Measured values reported in publication PMC4336329 (PLoS ONE, 2015).
# Among all 310,000 compounds or so, about 14,000 (4.5%) showed an effect of 50% or more. The effect is printed as a negative number. Some of the results follow.
# Molecular target: human ether-à-go-go-related gene (hERG) potassium channel (human, UniProt Q12809)
# Test: primary screen, population patch clamp on CHO cells stably expressing hERG
# 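Note: peak tail current of the secondary pulse compared with the same well before compound.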
# human ether-à-go-go-related gene (hERG) potassium channel, sequence (Q12809 whole entry, looked up): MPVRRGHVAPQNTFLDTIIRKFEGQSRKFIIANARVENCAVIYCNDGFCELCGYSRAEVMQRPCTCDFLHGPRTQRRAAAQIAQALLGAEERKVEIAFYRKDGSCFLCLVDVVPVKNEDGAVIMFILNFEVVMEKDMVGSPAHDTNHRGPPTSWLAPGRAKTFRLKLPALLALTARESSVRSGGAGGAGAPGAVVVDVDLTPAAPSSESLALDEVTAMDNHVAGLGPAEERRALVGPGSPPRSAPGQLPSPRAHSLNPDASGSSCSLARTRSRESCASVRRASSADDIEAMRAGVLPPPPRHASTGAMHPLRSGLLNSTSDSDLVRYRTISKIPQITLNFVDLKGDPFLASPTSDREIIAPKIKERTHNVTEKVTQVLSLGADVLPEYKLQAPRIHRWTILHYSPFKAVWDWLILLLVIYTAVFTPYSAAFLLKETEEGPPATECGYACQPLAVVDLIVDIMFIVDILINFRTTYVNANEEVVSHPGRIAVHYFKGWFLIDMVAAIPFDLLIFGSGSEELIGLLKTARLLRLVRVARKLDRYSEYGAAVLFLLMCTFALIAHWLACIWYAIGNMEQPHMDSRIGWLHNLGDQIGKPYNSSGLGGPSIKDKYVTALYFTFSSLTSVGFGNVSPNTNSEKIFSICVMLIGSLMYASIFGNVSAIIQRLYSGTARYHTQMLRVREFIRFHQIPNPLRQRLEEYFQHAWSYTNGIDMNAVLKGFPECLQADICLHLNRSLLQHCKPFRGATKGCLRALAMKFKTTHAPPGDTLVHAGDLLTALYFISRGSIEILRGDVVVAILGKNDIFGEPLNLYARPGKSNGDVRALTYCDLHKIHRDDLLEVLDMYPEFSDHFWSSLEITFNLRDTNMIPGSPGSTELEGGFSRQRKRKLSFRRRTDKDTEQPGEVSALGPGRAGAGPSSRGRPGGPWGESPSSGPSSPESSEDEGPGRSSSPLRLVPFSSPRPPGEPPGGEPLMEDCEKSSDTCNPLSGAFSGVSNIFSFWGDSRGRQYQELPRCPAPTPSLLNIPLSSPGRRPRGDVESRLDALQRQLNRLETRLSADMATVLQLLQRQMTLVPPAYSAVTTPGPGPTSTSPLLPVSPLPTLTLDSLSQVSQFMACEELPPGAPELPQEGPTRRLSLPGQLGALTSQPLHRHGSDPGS
row,Compound,"hERG current change (%, negative = inhibition) at 10uM [%]"
1,COC(=O)CNC(=O)C1CCN(c2nc(C)cc(C)n2)CC1,11.3
2,Cc1ccc(C(=O)NCC(=O)N2CCC3(CC2)NCCc2[nH]cnc23)cc1C,14.7
3,COc1ccc(C(c2nnnn2Cc2ccccc2)N2CCN(c3ccccc3)CC2)cc1.Cl (centres unmarked),-6.94
4,CC(NC(=O)c1cccc(C(F)(F)F)c1)C(c1ccccc1)N1CCOCC1 (centres unmarked),-4.35
5,CN(C)c1ccc(/C=C2\N=C(c3ccc(Cl)c([N+](=O)[O-])c3)NC2=O)cc1,15.1
6,CCCCNC(=O)N1c2ccccc2CC1C (centres unmarked),5.16
7,CCOC(=O)c1ccc(NS(=O)(=O)c2ccc(SC)cc2)cc1,0.723
8,O=C(Nc1ccccc1Cl)C(=O)c1cn(CC(=O)N2CCOCC2)c2ccccc12,5.59
9,O=C(COc1ccc(Cl)cc1Cl)NN1C(=O)C2C3C=CC([C@@H]2C1=O)C31CC1 (some centres unmarked),7.44
10,CCOC(=O)C1(Cc2ccccc2C(F)(F)F)CCN(C2CCN(C(C)=O)CC2)CC1,-18.6
11,Cc1ccc(CNC(=O)COC(=O)c2nc(-c3ccccc3)oc2C)cc1,-10.2
12,CCOCc1cc(C2NC(=O)NC(C)=C2C(=O)OCC)ccc1OC (centres unmarked),-1.75
13,O=C(O)c1ccccc1C(=O)OCCCCOC(=O)c1ccccc1C(=O)O,0.16
14,CC(=O)N1c2ccccc2C2CCCC[C@H]21 (some centres unmarked),6.04
15,CC(=O)Nc1sc(NC(=O)c2ccccc2)nc1-c1cccs1,0.00438
16,COC(=O)c1cc(OC)c(OC)cc1NC(=O)c1ccc(OC)cc1,-4.87
17,CC(C)N(C(=O)CSc1n[nH]c(=O)n1CCc1ccccc1)C(C)C,10.8
18,CC(=O)Nc1nnc(SCC(=O)NC(C)(C)C)s1,0.0786
19,COc1ccc(-c2nc3ccncc3[nH]2)cc1OC.Cl,14.9
20,COc1ccc(OC)c(C(C)NC(=O)C23CC4CC(CC(C4)C2)C3)c1 (centres unmarked),1.42
21,Cc1cc(C)nc(CCNC(=O)c2cc(COc3c(F)cccc3F)on2)n1,4.72
22,CCOC(=O)N1CCC(N(CCN(C)C)C(=S)Nc2cccc(C)c2)CC1,4.81

row,Compound,"hERG current change (%, negative = inhibition) at 10uM [%]"
1,O=C(Oc1ccc(OC(=O)N2CCCCC2)cc1)N1CCCCC1,17.4
2,C=CCOc1ccc(/C=C/C(=O)OCC(=O)NC2CCCCCC2)cc1,3.69
3,CCCCCCCNC(=O)c1cc(-c2ccncc2)nc2ccccc12,7.84
4,CCc1n[nH]c(=S)n1/N=C/c1ccccc1OCc1ccc(Cl)cc1,21.5
5,O=C(CSc1cccc2cccc(Cl)c12)NCc1cccs1,3.59
6,Cc1cccc(C)c1NC(=S)N(CCCN1CCOCC1)Cc1cccnc1,-3.7
7,CCOc1ccc(S(=O)(=O)N2CCOCC2)cc1NC(=O)C1CSC2(C)CCC(=O)N12 (centres unmarked),-13.2
8,Cc1cnc(C(=O)OCC(=O)c2c(N)n(CC(C)C)c(=O)n(C)c2=O)cn1,-8.35
9,CC(C)CN(C(=O)COC(=O)c1cccn1C)c1c(N)n(Cc2ccccc2)c(=O)[nH]c1=O,16.4
10,COc1ccccc1/C=N/Nc1nc(C)c(C(C)=O)s1,5
11,COCCN(C(=O)COC(=O)c1ccc(C=O)cc1)c1c(N)n(Cc2ccccc2)c(=O)[nH]c1=O,4.38
12,CCN(CC)C(=S)SCC(=O)Nc1ccc(F)cc1,-5.4
13,O=C(CNC(=O)c1ccc(Cl)c([N+](=O)[O-])c1)OC1CCCCC1=O (centres unmarked),3.96
14,O=C(CSc1nnc(COc2ccc(F)cc2)o1)N1c2ccccc2CCc2ccccc21,6.64
15,COc1ccccc1NC(=O)Cn1nnc(C(=O)Nc2ccccc2)c1N,-2.88
16,COc1cc(OC)cc(N2C(=O)CC(N3CCC(C(=O)N4CCCCC4)CC3)C2=O)c1 (centres unmarked),24.4
17,CCOc1ccc(NC(=O)CCC(=O)NNC(=O)COc2ccc(C)cc2Br)cc1,16.5
18,O=S(=O)(Nc1cccc(S(=O)(=O)N2CCCC2)c1)c1ccc(Cl)s1,-14.2
19,Cc1ccccc1NC(=O)c1ccc([N+](=O)[O-])o1,11.5
20,CCOc1ccc(C(C(=O)NC2CCCC2)N(Cc2ccccc2)C(=O)c2nsc(Cl)c2Cl)cc1 (centres unmarked),4.9
21,Cc1ccc(/C=N/NC(=O)c2ccccn2)s1,15.4
22,Cc1ccccc1NC(=O)c1cccc(N2C(=O)C3C4CCC(C4)C3C2=O)c1 (centres unmarked),6.28
